The record followed here is PubChem BioAssay AID488969 (Vanderbilt High Throughput Screening Facility, 2010).

The full ranking holds about 110,000 compounds; the median of “z-score” is about -0.1, and the highest 2% start at about 2. The list shows a part of the results. Activity calls are given as the source filed them.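 The calls were made as follows: active = z-score in the third read window above 3 or below -3; inactive = the rest.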

This test has as its target Metabotropic glutamate receptor 8 (Rattus norvegicus) (UniProt P70579). Put plainly: rat mGluR8 modulators via GIRK flux, primary screen, cell-based, thallium flux, HTS (AID 488969). The note with it: HEK293 rat mGluR8, GIRK (G protein-gated inwardly rectifying potassium channel) thallium flux, FluoZin2; at 10 µM; stronger effect = higher value; submaximal glutamate (EC20) added with thallium.
Sequence of UniProt P70579 (P70579 whole entry, looked up): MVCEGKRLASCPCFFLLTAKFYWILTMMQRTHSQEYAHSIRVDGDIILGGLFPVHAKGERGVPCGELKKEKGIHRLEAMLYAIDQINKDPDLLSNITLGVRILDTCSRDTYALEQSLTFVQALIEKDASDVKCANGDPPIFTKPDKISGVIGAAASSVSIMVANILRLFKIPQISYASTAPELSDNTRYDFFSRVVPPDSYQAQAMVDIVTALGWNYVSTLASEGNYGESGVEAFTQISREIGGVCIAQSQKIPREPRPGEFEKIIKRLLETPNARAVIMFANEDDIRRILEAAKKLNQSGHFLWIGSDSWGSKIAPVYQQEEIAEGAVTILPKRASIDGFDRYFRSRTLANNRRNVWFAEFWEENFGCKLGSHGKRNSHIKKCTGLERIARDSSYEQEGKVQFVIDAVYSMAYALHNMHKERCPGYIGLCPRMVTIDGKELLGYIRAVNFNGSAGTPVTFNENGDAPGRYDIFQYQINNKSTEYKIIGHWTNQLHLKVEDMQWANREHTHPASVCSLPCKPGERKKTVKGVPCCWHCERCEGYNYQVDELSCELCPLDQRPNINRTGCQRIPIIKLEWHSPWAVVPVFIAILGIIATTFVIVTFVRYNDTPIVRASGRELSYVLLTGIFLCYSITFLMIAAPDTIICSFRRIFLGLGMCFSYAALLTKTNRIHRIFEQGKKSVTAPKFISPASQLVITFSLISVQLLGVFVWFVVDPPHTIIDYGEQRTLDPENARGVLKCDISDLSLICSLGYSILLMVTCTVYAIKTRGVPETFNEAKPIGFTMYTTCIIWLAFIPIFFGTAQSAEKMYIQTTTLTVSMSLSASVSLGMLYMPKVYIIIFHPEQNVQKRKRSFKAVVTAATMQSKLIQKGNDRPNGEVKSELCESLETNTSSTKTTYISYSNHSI
`CCCC(=O)Nc1cc(-c2nn(C)c(=O)c3ccccc23)ccc1N1CCOCC1` displayed a z-score of -0.907.

On to `O=C(Nc1cccc(S(=O)(=O)N2CCCC2)c1)c1ccc2c(c1)OCO2`, for which the z-score was -0.514. The compound `Cn1ccnc1SCC(=O)Nc1cccc(O)c1` registered a z-score of -0.145. To `Cc1cccc(NC(=O)c2cc(NC(=O)CCCC(=O)O)ccc2Cl)n1` belongs 1.63. To `COc1ccc2c(c1)CCc1c(C(=O)N3CC4(C)CC3CC(C)(C)C4)noc1-2` (configuration not stated) belongs -0.354; to `O=C(NCc1ccccn1)C(C(=O)c1ccc(F)cc1)n1ccccc1=O` (configuration not stated), 0.0468; to `O=C(c1ccccn1)N1CCN(c2ccc(C(F)(F)F)cn2)CC1`, 0.0382. On to `N#Cc1c(N)nc2c3c(sc(=N)c2c1N)NC(=O)CC3c1c(F)cccc1Cl` (configuration not stated), for which the z-score was -0.296.

`O=C(N/N=C/c1ccc(F)cc1)c1ccc(Br)cc1`: the z-score is 0.445. As to `CCOC(=O)c1sc(NC(=O)/C=C/c2cnn(C)c2C)c(C(=O)OC(C)C)c1C`, the z-score was -0.129. To `CCC(=O)c1ccc(N2CCCC2)c(F)c1` belongs 0.0378. As to `CCCN(CCC)S(=O)(=O)c1ccc(NS(=O)(=O)c2ccc(F)cc2)cc1`, the z-score was -0.328. For `COc1cc(C)nc(N(Cc2ccccc2)S(=O)(=O)c2ccccc2)n1`, the z-score was found to be 2.43. Then `C=CCNC(=O)c1ccccc1NC(=O)c1ccc(Cl)c(S(=O)(=O)Nc2ccccc2)c1`, with -0.506.

The compound `COc1ccc(CCNC(=O)c2ccc(Cl)cc2)cc1` had a z-score of -0.0532.

On to `Cc1ccccc1OCC(=O)NNC(=O)CN1C(=O)c2ccccc2C1=O`, for which the z-score was -0.179.

The compound `CCCn1nc2cc(C(=O)NCc3ccc4c(c3)OCO4)ccc2c1OCC` yielded a z-score of -0.409. To `COc1ccc(N(CCCN2C(=O)c3cccc4cccc(c34)C2=O)C(=O)c2cccc(OC)c2)cc1` belongs 0.116. Then `Cc1nc2cc(NC(=O)Nc3ccc(N4CCOCC4)cc3)ccc2n1C`, with 0.497; and `C/C(=N\N=C(/N)SC1CC(=O)N(c2cccc(Cl)c2)C1=O)c1cccs1` (configuration not stated), with 0.517; and `COC(=O)c1cccc(Cn2c(Cl)c(/C=N/NC(=O)c3ccccc3Cl)sc2=O)c1`, with 0.0725. To `CC(=O)OC[C@H]1O[C@@H](Sc2cccc3cccnc23)[C@H](OC(C)=O)[C@@H](OC(C)=O)[C@H]1OC(C)=O` belongs 0.891; to `COc1ccc(/C=N/N=C2/NC(=O)CC(C(=O)O)S2)cc1` (configuration not stated), -0.208. In turn, `COc1cccc(NS(=O)(=O)c2c(C)n(C)c(=O)n(C)c2=O)c1` came in with a z-score of 0.496. Then `Cc1ccc(CC2S/C(=N/c3ccccn3)NC2=O)cc1` (configuration not stated), with 0.0705; and `O=C(CCCNS(=O)(=O)c1ccc(Br)cc1)N1CC[C@@]2(O)CCCC[C@H]2C1`, with 0.802. Then `CC(=O)NC(NC(C)=O)c1ccc(N(C)C)cc1`, with 0.737.

`CCOC(=O)c1[nH]c2ccccc2c1NC(=O)c1ccco1`: the z-score amounted to 0.488. To `COC(=O)c1ccc(C(C(=O)NC2CCCCC2)N(CCc2ccccc2)C(=O)Cc2cccs2)cc1` (configuration not stated) belongs -0.269; to `CC1(C)CC(=O)CC(=O)/C1=N\Nc1c(Cl)cc(Cl)cc1Cl`, -0.302; to `CCOC(=O)CNC(=O)Cn1c(C)cc2ccccc2c1=O`, 0.0766. To `Cc1ccc(C(C)C)c(OCc2ccc(C(=O)N/N=C/c3ccc(O)cc3O)cc2)c1` belongs -0.1; to `Cn1nc(CC(=O)NCc2ccc(C(F)(F)F)cc2)c2ccccc2c1=O`, -0.231; to `O=C(NC1CCC(O)CC1)c1ccc(S(=O)(=O)NCc2ccco2)cc1` (configuration not stated), -0.706.

Compound `Cc1nccn1CC(O)COC1CCCCC1` (configuration not stated) displayed a z-score of -0.0665.

`Cc1ccc(CC(=O)Nc2cccc(C)n2)cc1` came in with a z-score of -0.243.

Consider `CCOC(=O)C1=C(N)Oc2c(oc(CO)cc2=O)C1c1c(F)cccc1Cl` (configuration not stated), for which the z-score is -0.854.

The compound `Cc1onc(-c2ccccc2)c1C(=O)NNC(=S)NC(=O)/C=C/c1cccs1` yielded a z-score of 1.86. Then `CCOC(=O)c1ccc(NC(=O)CSc2nnc(NC(=O)c3ccc(S(=O)(=O)N4CCOCC4)cc3)s2)cc1`, with 0.00895; and `CCN(c1ccccc1)S(=O)(=O)c1ccc2[nH]cc(C(=O)NCCOC)c(=O)c2c1`, with -0.154; and `O=C(Cn1nc(-c2ccc(Cl)cc2)c2ccccc2c1=O)NCC1CCCO1` (configuration not stated), with 0.304. For the compound `c1ccc(CN2CN=C(Nc3nc4ccccc4s3)NC2)cc1`, the z-score is -0.813. Then `COc1ccc(N2CC(C(=O)OCC(=O)c3ccccc3)CC2=O)cc1` (configuration not stated), with -0.343. Compound `CCOc1ccccc1CN(Cc1ccco1)S(=O)(=O)c1ccc(-n2cnnn2)c(OC)c1` came in with a z-score of 0.115. To `Cc1ccc(CS(=O)(=O)Cc2ccc(C(=O)NCc3cccnc3)o2)cc1` belongs 0.895; to `O=C(CN1CCN(c2ccc(O)cc2)CC1)NC(=O)NCc1ccco1`, 0.00611. Then `Cc1ccccc1C(=O)N1CCN(c2ccc(NC(=O)c3ccco3)cc2Cl)CC1`, with -0.144; and `COc1ccc(S(=O)(=O)N2CCC(C(=O)Nc3ccccc3C)CC2)c2cccnc12`, with -0.563; and `Cc1oc2c(CN3CCCC3)c(O)ccc2c(=O)c1-c1ccc(Br)cc1`, with -0.0932. Regarding `Cc1ccccc1CSCCNC(=O)CCSc1ccccc1`, the z-score is -0.385. Then `Cc1nc2cc(CC(=O)O)ccc2o1`, with -0.422. Compound `O=C(COC(=O)/C=C/c1ccccc1)NCc1ccc(Cl)cc1` displayed a z-score of -0.244. As to `O=C(Oc1cccnc1)c1cc2ccccc2oc1=O`, the z-score was -0.355.

With `CCCc1nc(Cl)c(C#N)c2c1CCCC2`, the z-score was determined as 0.271. To `COC(=O)C(Cc1ccc(O)cc1)NC(=O)CCC(=O)Nc1ccc(S(N)(=O)=O)cc1` (configuration not stated) belongs -0.14. `Cc1nn(-c2cccc(C(F)(F)F)c2)c(Cl)c1/C=N/n1cnnc1`: the z-score is -0.527. For the compound `CCOc1ccc(C2NC(=O)NC(C)=C2C(=O)OC)cc1C` (configuration not stated), the z-score is -0.376. Then `O=c1[nH]c2ccccc2c(=O)n1Cc1ccccc1`, with 0.345.

`CCCCn1c(SCC(=O)N2c3ccccc3CCc3ccccc32)nc2c1c(=O)n(C)c(=O)n2C` registered a z-score of -0.542.

`Cc1cccc2cc(/C=N/NC(=O)CN3CCOCC3)c(Cl)nc12` came in with a z-score of -0.19. Then `O=C(Cc1csc(Nc2nc(=S)[nH]c3ccccc23)n1)NCc1ccc(Cl)cc1`, with active: 7.05; and `Cc1ccnc(SCc2cc(=O)c(OC(=O)c3ccc(Cl)c([N+](=O)[O-])c3)co2)n1`, with -0.912; and `COc1ccccc1C(=O)Oc1cc(N)n(S(=O)(=O)c2ccc(C)cc2)n1`, with -0.56. Compound `COc1ccc(OC)c(-c2cc(C3CCN(c4ncccc4[N+](=O)[O-])CC3)[nH]n2)c1` displayed a z-score of -0.48. To `COc1ccc(OCC(O)CN2CCCCCC2)cc1` (configuration not stated) belongs 0.373; to `CCC1Oc2ccccc2N(CC(=O)NCCCN2CCCCC2C)C1=O` (configuration not stated), -0.198. `Cc1nc2c(-c3ccccc3)c(C)nn2c(C)c1CCC(=O)NC(C)CCc1ccco1` (configuration not stated) displayed a z-score of -0.522.

Turning to `COC(=O)CCC(=O)N1CCc2cc(S(=O)(=O)N3CCN(c4ccccc4Cl)CC3)ccc21`, the z-score was 0.729. Compound `Cc1ccc(S(=O)(=O)N2Cc3ccccc3CC2C(=O)Nc2cc(C)on2)cc1` (configuration not stated) gave a z-score of -1.27. Consider `COc1cc(OC)cc(-c2cc(N)n(S(=O)(=O)Cc3ccccc3)n2)c1`, for which the z-score is -0.0712.

Compound `COc1ccc(-c2cc(CCCC(=O)NCCc3ccc(OC)cc3OC)no2)cc1` yielded a z-score of 0.0917. To `Clc1nccnc1-c1ccccc1` belongs 0.222; to `COc1ccc(OC)c(NC(=O)CNC(=O)c2cccs2)c1`, -0.286; to `Cc1ccc2c(c1)nnn2C1CCN(S(=O)(=O)c2ccc(C(=O)N(C)C)cc2)CC1`, 0.178. Then `Cc1nc(-c2ccccc2)sc1C(=O)CSc1ccc(Br)cc1`, with -0.108. For the compound `CCCCCOC(=O)NCCOC(=O)Nc1ccc(C(=O)OCC)cc1`, the z-score is -0.155. To `CC(=O)c1cccc(NC(=S)NC(=O)c2ccccc2)c1` belongs 1.63; to `CCC(C)NC(=O)COC(=O)c1oc2ccccc2c1CSc1ccc(Cl)cc1` (configuration not stated), -0.66.

On to `CCOc1ccc(N2C(=O)c3cccnc3C2Nc2ccc(OC)cc2)cc1` (configuration not stated), for which the z-score was -0.304. To `COc1ccccc1CNn1c(-c2cccc(C)c2)nc2ccccc2c1=O` belongs -1.23.

With `Cc1ccc(-c2ccc(CCC(=O)O)n2-c2ccc(O)cc2)cc1`, the z-score is -0.338.

`CCOc1ccc(-c2nc(S(=O)(=O)c3ccccc3)c(NCc3cccnc3)o2)cc1` came in with a z-score of 0.382. To `Cc1nc(N2CCN(C(c3ccccc3)c3ccccc3)CC2)[nH]c(=O)c1C` belongs -0.222; to `COc1ccc(NC(=O)C23CC4CC(C2)CC(c2ccccc2)(C4)C3)c(OC)c1`, -0.321. For `COC(=O)c1ccc(-c2nc(O)c3cnccn23)cc1`, the z-score is -0.794. In turn, `COc1cc(CNC2CCCCC2OC)cc(OC)c1OC` (configuration not stated) had a z-score of -0.0819.

Compound `Cc1c(Cl)cccc1Nc1nc(N)nc(CSCCO)n1` yielded a z-score of 0.0164. Consider `COc1cc(CNCCc2ccc(S(N)(=O)=O)cc2)ccc1OCC(=O)N1CCCCC1`, for which the z-score is -0.014. In the case of `COC(=O)/C(C(C)=O)=C(/C=C/C=C/N(C)C)N(C)C`, the z-score stood at 0.241. Then `O=C(Oc1ccc2ccccc2c1Cl)N1CCCC1`, with -0.206. Regarding `CCOC(=O)C(NC(=O)NCc1ccc(OC)cc1)(OCC)C(F)(F)F` (configuration not stated), the z-score was -0.306.

Compound `COc1ccc(OCC(=O)N2N=C(C(F)F)CC2(O)C(F)F)cc1` (configuration not stated) registered a z-score of 1.18. Then `CCn1c(Cc2cccc3ccccc23)nnc1SCC(=O)Nc1nccs1`, with -1. For the compound `O=C(CN(Cc1ccco1)C(=O)CNS(=O)(=O)c1ccccc1)NCc1ccc(F)cc1`, the z-score amounted to 0.109. Compound `COc1ccc(CNC(=O)CS(=O)Cc2nc(-c3ccc(C)cc3)oc2C)cc1` (configuration not stated) showed a z-score of -0.37. With `Cc1ccnc(SCC(=O)n2c3c(c4ccccc42)CC(C)CC3)n1` (configuration not stated), the z-score is -0.187.

`C=CCc1cccc2cc(C(=O)N3CCN(C(=O)OCC)CC3)c(=O)oc12` had a z-score of 0.153. On to `CCOCCCNC(=O)N[C@@H](C)C(=O)OC`, for which the z-score was -0.392. Compound `CCc1nc(NCCN2CCOCC2)c(C#N)c2c1CCCC2` yielded a z-score of -0.323.

As for `CC1(C)NC(=O)N(CC(O)CN2CCCCC2)C1=O` (configuration not stated), the z-score amounted to 0.323.

Consider `CCC(C)NC(=O)CSc1nnc(-c2cc(-c3cccs3)nc3ccccc23)o1` (configuration not stated), for which the z-score is -0.652.

For `CC(C)OC(=O)CC(=O)CSc1nc2c(cc1C#N)CCCCC2`, the z-score is -0.045. With `COc1ccc2[nH]c(=O)c(CN(Cc3cccs3)C(=S)Nc3ccccc3)cc2c1`, the z-score is -0.195. Then `CCn1nnnc1SCC(=O)Nc1nc(-c2cccs2)cs1`, with -0.439; and `CSc1nc2ccc3nc(NC(=O)c4ccccc4)sc3c2s1`, with -0.431; and `Cc1ccc(C(=O)N/C(=C\c2ccc(-c3cc(Cl)ccc3Cl)o2)C(=O)NCc2cccnc2)cc1`, with -0.283. Compound `O=C(/C=C/c1ccccc1Cl)N1CCN(c2ncccn2)CC1` came in with a z-score of 0.458.
